{"source": "PubChem BioAssay AID504333", "about": "(National Center for Advancing Translational Sciences (NCATS), 2011)", "note": "Values joined by “and” are separate entries in the source; they are usually repeats but may differ in a detail not shown here. Equal values may be shown once. The campaign covered roughly 360,000 compounds. About 16,000 (4.4%) were called active. The inconclusive results got no clear call from the source; some entries with a clear call stand among them for comparison. Calls come from the whole dose curve; as a rule, active = well fitted inhibition curve with a large enough effect; inconclusive = small, poorly fitted or top-dose-only effect; inactive = no such curve, though single readings can be large or run the other way. Potencies of inconclusive entries are doubtful fits and often do not repeat. Potency is the fitted concentration of half-maximal effect; tags give direction and shape of the fitted curve."}
{"target": "Bromodomain adjacent to zinc finger domain protein 2B (Homo sapiens) (UniProt Q9UIF8)", "sequence (Q9UIF8 whole entry, looked up, the tested form may be a part)": "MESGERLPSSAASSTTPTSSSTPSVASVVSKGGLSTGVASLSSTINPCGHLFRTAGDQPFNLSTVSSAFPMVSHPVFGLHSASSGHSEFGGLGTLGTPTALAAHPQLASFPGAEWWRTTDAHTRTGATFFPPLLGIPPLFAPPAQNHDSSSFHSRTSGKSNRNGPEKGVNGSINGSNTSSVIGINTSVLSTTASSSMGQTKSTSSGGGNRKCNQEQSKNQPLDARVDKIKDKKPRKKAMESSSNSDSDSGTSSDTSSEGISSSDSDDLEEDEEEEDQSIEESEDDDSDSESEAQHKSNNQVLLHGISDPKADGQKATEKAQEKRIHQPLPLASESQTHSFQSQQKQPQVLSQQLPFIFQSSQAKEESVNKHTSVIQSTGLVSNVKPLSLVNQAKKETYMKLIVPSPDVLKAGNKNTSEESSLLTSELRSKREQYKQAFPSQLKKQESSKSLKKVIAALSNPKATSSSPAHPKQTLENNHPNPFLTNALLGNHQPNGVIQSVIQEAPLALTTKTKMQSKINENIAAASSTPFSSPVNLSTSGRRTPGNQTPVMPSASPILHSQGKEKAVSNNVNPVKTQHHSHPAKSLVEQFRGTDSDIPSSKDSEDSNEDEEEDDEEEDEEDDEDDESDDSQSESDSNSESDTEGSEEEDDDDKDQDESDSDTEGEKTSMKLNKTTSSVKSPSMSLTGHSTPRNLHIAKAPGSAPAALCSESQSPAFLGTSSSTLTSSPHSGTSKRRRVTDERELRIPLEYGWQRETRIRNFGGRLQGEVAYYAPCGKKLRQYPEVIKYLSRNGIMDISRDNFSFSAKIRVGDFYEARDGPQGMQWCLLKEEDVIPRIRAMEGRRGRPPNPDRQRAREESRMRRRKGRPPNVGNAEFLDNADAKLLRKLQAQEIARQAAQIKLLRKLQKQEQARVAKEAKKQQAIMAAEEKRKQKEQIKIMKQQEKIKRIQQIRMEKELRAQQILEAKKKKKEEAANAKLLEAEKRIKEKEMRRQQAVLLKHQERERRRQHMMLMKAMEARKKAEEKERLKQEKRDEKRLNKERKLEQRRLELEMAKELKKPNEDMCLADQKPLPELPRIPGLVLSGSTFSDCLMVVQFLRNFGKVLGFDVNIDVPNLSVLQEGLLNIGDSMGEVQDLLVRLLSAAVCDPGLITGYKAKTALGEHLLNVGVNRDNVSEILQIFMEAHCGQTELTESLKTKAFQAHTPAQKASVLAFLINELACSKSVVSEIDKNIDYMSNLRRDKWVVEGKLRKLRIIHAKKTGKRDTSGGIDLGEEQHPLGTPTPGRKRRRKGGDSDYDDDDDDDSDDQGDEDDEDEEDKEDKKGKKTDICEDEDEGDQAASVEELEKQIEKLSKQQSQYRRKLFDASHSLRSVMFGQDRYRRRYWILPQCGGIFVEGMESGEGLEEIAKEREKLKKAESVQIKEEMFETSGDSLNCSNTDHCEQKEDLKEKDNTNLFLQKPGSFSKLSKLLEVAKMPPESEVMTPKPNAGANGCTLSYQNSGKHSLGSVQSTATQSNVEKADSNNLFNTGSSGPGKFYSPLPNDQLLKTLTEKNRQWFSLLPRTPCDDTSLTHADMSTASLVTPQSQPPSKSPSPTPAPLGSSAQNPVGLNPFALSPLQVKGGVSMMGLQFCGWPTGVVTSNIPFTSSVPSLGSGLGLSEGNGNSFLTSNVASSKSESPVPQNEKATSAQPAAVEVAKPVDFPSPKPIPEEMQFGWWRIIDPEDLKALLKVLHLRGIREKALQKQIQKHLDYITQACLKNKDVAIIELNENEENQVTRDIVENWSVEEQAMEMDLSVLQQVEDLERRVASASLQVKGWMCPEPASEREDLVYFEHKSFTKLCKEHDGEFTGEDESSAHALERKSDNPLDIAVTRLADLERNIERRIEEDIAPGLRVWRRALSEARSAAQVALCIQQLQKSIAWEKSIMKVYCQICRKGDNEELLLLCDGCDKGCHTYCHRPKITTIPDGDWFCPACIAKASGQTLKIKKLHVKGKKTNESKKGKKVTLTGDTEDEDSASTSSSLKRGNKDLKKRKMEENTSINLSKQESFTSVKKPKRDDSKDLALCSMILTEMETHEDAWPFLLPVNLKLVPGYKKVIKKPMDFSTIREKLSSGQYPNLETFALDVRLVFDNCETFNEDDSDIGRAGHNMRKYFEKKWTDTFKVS", "assay": "qHTS Assay for Inhibitors of BAZ2B; note: nearly all actives have a fitted effect of over 60% in size", "details": "AlphaScreen BAZ2B-H3K14Ac peptide displacement; series mostly up to 114 µM", "method_in_brief": "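Compounds, titrated to a top concentration of 110 uM, were incubated 30 min at room temperature with preformed BAZ2B/acetyl-K14 H3 peptide complex (50 nM each). Proximity signal was measured by AlphaScreen after 20 min with beads.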"}
{"compound": "CCC(=O)Nc1cccc(-c2nc3ccccc3c(=O)o2)c1", "Potency": "inconclusive: 89.1 µM [inhibitor, single point]"}
{"compound": "CCOC(=O)c1cnc(-c2ccccc2O)nc1Cl", "Potency": "inconclusive: 89.1 µM [inhibitor, single point]"}
{"compound": "COc1ccc(CCNC(=S)NC(=O)c2ccccc2)cc1OC", "Potency": "inconclusive: 15.8 µM [inhibitor, partial curve]"}
{"compound": "Cc1cccc2c1N(C(=O)CN1C(=O)c3ccccc3C1=O)C(C)(C)c1ssc(=S)c1-2", "Potency": "inconclusive: 89.1 µM [inhibitor, single point]"}
{"compound": "CCc1ccc2c(c1)/C(=C/C(=O)c1cccs1)C(=O)N2", "Potency": "active: 11.2 µM"}
{"compound": "CCn1c(=O)c([N+](=O)[O-])c(N2CCSCC2)c2ccccc21", "Potency": "inconclusive: 70.8 µM [inhibitor, single point]"}
{"compound": "COc1ccc(NC(=O)CN(Cc2ccco2)Cc2ccco2)cc1S(=O)(=O)N1CCCCC1", "Potency": "inconclusive: 79.4 µM [inhibitor, single point]"}
{"compound": "NC(=O)c1sc2nc3c(c(-c4ccco4)c2c1N)CCC3", "Potency": "inconclusive: 79.4 µM [inhibitor, partial curve]"}
{"compound": "N#C/C(=C(/O)CN1CCCC1)c1nc(-c2ccccc2)cs1", "Potency": "inconclusive: 79.4 µM [inhibitor, single point]"}
{"compound": "CC(CNC(=O)C1CCN(C(=O)N2CCOc3ccc(Cl)cc32)CC1)c1ccccc1", "note": "(centres undefined)", "Potency": "inconclusive: 39.8 µM [inhibitor, full curve, poor fit]"}
{"compound": "CCCCn1c(CCC(=O)O)ccc1-c1cccs1", "Potency": "inconclusive: 89.1 µM [inhibitor, single point]"}
{"compound": "CC(C)C(=O)Nc1ccc(C(=O)N/N=C/c2cc(Br)cc(Br)c2O)cc1", "Potency": "active: 7.94 µM"}
{"compound": "CCN(c1ccc(Cl)cc1)S(=O)(=O)c1nnc(NC(=O)c2ccccc2C)s1", "Potency": "inactive"}
{"compound": "NC(=O)CCCn1c(C(=O)c2cc(Cl)c(N)c(Cl)c2)c2ccc(C(F)(F)F)cc2[n+]1[O-]", "Potency": "inconclusive: 89.1 µM [inhibitor, single point]"}
{"compound": "CCOc1ccc(S(=O)(=O)N2CCC(C(=O)NCC3CCCO3)CC2)cc1", "note": "(centres undefined)", "Potency": "inactive"}
{"compound": "COc1ccc(/C=N/NC(=O)c2ccccc2F)cc1CN1CCN(c2ccc(F)cc2)CC1", "Potency": "active: 50.1 µM"}
{"compound": "COc1ccc(-c2onc(C)c2C)cc1S(=O)(=O)NCc1ccc(C)o1", "Potency": "inconclusive: 70.8 µM [inhibitor, single point]"}
{"compound": "O=S(=O)(NCc1ccccn1)c1cccc2nsnc12", "Potency": "inconclusive: 8.91 µM [inhibitor, single point]"}
{"compound": "N#CC1=C(N)OC2=C(C(=O)CCC2)C12C(=O)N1CCCc3cccc2c31", "note": "(centres undefined)", "Potency": "inconclusive: 7.08 µM [inhibitor, single point]"}
{"compound": "CCCN1CCC(=NNc2ccc(C(=O)O)cc2)CC1", "Potency": "inconclusive: 89.1 µM [inhibitor, single point]"}
{"compound": "Cc1nn(CCC(=O)NCc2ccc(Cl)cc2)c(=O)c2nn(-c3ccccc3)c(C)c12", "Potency": "inactive"}
{"compound": "O=C(O)c1ccc(-n2cccc2/C=C2/NC(=O)N(c3cccc(Cl)c3)C2=O)cc1", "Potency": "active: 15.8 µM"}
{"compound": "COc1cc(CNCc2ccncc2)cc(OC)c1OC", "Potency": "inactive"}
{"compound": "CCc1ccc(Nc2n[n+](-c3ccccc3)c(-c3ccc(N(CC)CC)cc3)s2)cc1", "Potency": "active: 39.8 µM"}
{"compound": "COc1cccc(N(C(=O)c2ccco2)C(C(=O)NC2CCCC2)c2ccc(N(C)C)cc2)c1", "note": "(centres undefined)", "Potency": "inconclusive: 89.1 µM [inhibitor, single point]"}
{"compound": "Cc1ccc2[nH]c(CSc3nnc(NC(=O)c4ccccc4F)s3)cc(=O)c2c1", "Potency": "inactive"}
{"compound": "Clc1ccc(CN2CCN(/N=C/c3cccnc3)CC2)cc1", "Potency": "inconclusive: 50.1 µM [inhibitor, partial curve]"}
{"compound": "CCC(C)NC(=O)CSc1ccc(NC(C)=O)cc1", "note": "(centres undefined)", "Potency": "inactive"}
{"compound": "CC(=O)OCC1=C(C(=O)O)N2C(=O)[C@@H](NC(=O)Cc3cccs3)[C@H]2SC1", "Potency": "active: 50.1 µM"}
{"compound": "COc1ccc(C(CCc2ccc(C)o2)NC(=O)Nc2ccc(OC)cc2OC)cc1", "note": "(centres undefined)", "Potency": "inconclusive: 79.4 µM [inhibitor, single point]"}
{"compound": "COc1ccc2nc(N=Nc3c(O)ccc4ccccc34)sc2c1", "Potency": "active: 2.82 µM"}
{"compound": "O=C1N/C(=N/Nc2ccccc2)S/C1=C\\c1ccccc1", "Potency": "active: 39.8 µM"}
{"compound": "c1cn(CC2(Cn3ccnc3)COC2)cn1", "Potency": "inconclusive: 79.4 µM [inhibitor, single point]"}
{"compound": "Cc1cccc(N2CCN(C(=O)CCC(=O)N3CC(C)Oc4ccc(C)cc43)CC2C)c1", "note": "(centres undefined)", "Potency": "inconclusive: 44.7 µM [inhibitor, partial curve]"}
{"compound": "O=C1NCCc2c1[nH]c1c(Cl)ccc(Cl)c21", "Potency": "inactive"}
{"compound": "Cc1cccc(C2Nc3ccccc3C(=O)N2CCc2ccccc2)n1", "note": "(centres undefined)", "Potency": "inactive"}
{"compound": "CN1CCN(c2ccc(NC(=O)c3cc([N+](=O)[O-])ccc3N3CCOCC3)cc2)CC1", "Potency": "inconclusive: 79.4 µM [inhibitor, single point]"}
{"compound": "C/C=C/c1ccc(OCC(O)CNCCc2ccc(OC)cc2)c(OC)c1", "note": "(centres undefined)", "Potency": "active: 56.2 µM"}
{"compound": "COc1ccc(NS(=O)(=O)c2ccc(N3CCCC3)c(NC(=S)Nc3cccc(C)c3C)c2)cc1", "Potency": "inconclusive: 44.7 µM [inhibitor, partial curve]"}
{"compound": "Cc1ccc(-n2c(SCC(N)=O)nnc2-c2ccccn2)cc1", "Potency": "active: 25.1 µM"}
{"compound": "O=C(c1ccco1)N1CCN(Cc2ccc(F)cc2)CC1", "Potency": "active: 79.4 µM"}
{"compound": "COc1ccccc1Nc1nc(-c2sc(N)nc2C)cs1", "Potency": "inconclusive: 56.2 µM [inhibitor, partial curve]"}
{"compound": "COc1ccccc1-n1c(=S)[nH]c2c(sc(=S)n2-c2ccc(C)cc2C)c1=O", "Potency": "inconclusive: 79.4 µM [inhibitor, partial curve]"}
{"compound": "O=c1cc(CCl)nc2sc3ccccc3n12", "Potency": "active: 50.1 µM"}
{"compound": "O=C(Nc1ccc2nccnc2c1)c1cnccn1", "Potency": "inactive"}
{"compound": "CCN1CCN(c2nc3ccccc3nc2C(C#N)C(=O)OC2CCCCC2)CC1", "note": "(centres undefined)", "Potency": "inconclusive: 44.7 µM [inhibitor, partial curve] and inconclusive: 50.1 µM [inhibitor, partial curve]"}
{"compound": "Cc1cccc(CCNC(=O)c2ccc(CSCc3cccc(Cl)c3)o2)c1", "Potency": "inactive"}
{"compound": "CCCn1c(=N)n(CC(O)COc2ccccc2OC)c2ccccc21", "note": "(centres undefined)", "Potency": "inactive"}
{"compound": "O=C(O)c1ccc2c(c1)C1C=CCC1C(c1cc3c(cc1Br)OCO3)N2", "note": "(centres undefined)", "Potency": "inactive"}
{"compound": "CSc1nsc(/C=C/Nc2ccc(C)cc2)c1C#N", "Potency": "inconclusive: 79.4 µM [inhibitor, single point]"}
{"compound": "CC1CCN(S(=O)(=O)c2cn(CC(=O)Nc3ccc(OC(F)(F)F)cc3)cn2)CC1", "Potency": "inconclusive: 79.4 µM [inhibitor, single point]"}
{"compound": "COc1c2c(cc3ccc(=O)oc13)CCO2", "Potency": "inactive"}
{"compound": "Cc1c(Cl)ccc(S(=O)(=O)NCCN2CCOCC2)c1Cl", "Potency": "inconclusive: 100 µM [inhibitor, single point]"}
{"compound": "CN(C)c1ccc(C2CC(=O)C=C(Nc3ccccc3N)C2)cc1", "note": "(centres undefined)", "Potency": "active: 44.7 µM"}
{"compound": "COc1ccc(CCNC(=O)Cn2cnc3sc(C)c(-c4ccc(F)cc4)c3c2=O)cc1OC", "Potency": "inconclusive: 79.4 µM [inhibitor, single point]"}
{"compound": "CC(=O)CSc1ncnc2sc3c(c12)CCC(C)C3", "note": "(centres undefined)", "Potency": "inactive"}
{"compound": "COc1ccc(-c2csc(Nc3ccc(S(=O)(=O)Nc4cc(OC)nc(OC)n4)cc3)n2)cc1", "Potency": "active: 44.7 µM"}
{"compound": "CC(C(=O)NC1C=CS(=O)(=O)C1)N1C(=O)/C(=C\\c2ccccc2)SC1=S", "note": "(centres undefined)", "Potency": "inconclusive: 12.6 µM [inhibitor, full curve, poor fit]"}
{"compound": "COc1ccc(C2=CC3=C(Br)C(=O)C(C)(OC(=O)C4CCCC4)C(=O)C3=CO2)cc1", "note": "(centres undefined)", "Potency": "active: 79.4 µM"}
{"compound": "Cc1ccc[n+](-c2nc([O-])sc2C=O)c1", "Potency": "inconclusive: 79.4 µM [inhibitor, partial curve]"}
{"compound": "Cc1c(O)cc2n(c1=O)-c1ccc(Cl)cc1C2(C)C", "Potency": "inactive"}
{"compound": "CCOC(=O)c1c(NC(=O)CSc2nnc(Cc3csc(N)n3)n2C)sc(C)c1C", "Potency": "active: 12.6 µM"}
{"compound": "O=C(CN1CCOCC1)N/N=C/c1ccccc1", "Potency": "inactive"}
{"compound": "C/C(=N/NS(=O)(=O)c1ccccc1)c1ccc(Cl)cc1", "Potency": "inactive"}
{"compound": "CCn1cc2nc(SCC(=O)Nc3ccccc3F)n(Cc3ccccc3)c(=O)c2n1", "Potency": "inactive"}
{"compound": "COc1ccc(C2NC(=S)NC3=C2CCc2ccccc23)cc1OC", "note": "(centres undefined)", "Potency": "inconclusive: 44.7 µM [inhibitor, partial curve]"}
{"compound": "Cc1c(C(=O)Nc2ccc(Nc3ccccc3)cc2)cccc1[N+](=O)[O-]", "Potency": "inconclusive: 25.1 µM [inhibitor, full curve]"}
{"compound": "Cc1cc(C)cc(C(=O)NCC(=O)OCC(=O)c2c(N)n(C)c(=O)n(C)c2=O)c1", "Potency": "inactive"}
{"compound": "COc1ccc(N2CCN(C(C)C(=O)N3CCc4ccccc43)CC2)cc1", "note": "(centres undefined)", "Potency": "inconclusive: 50.1 µM [inhibitor, partial curve]"}
{"compound": "O=C(Nc1ccc2c(c1)OCO2)c1cc(-c2ccncc2)nc2ccccc12", "Potency": "inconclusive: 50.1 µM [inhibitor, partial curve]"}
{"compound": "Cc1ccc(NC(=S)N2CCc3[nH]c4ccccc4c3C2)cc1", "Potency": "active: 25.1 µM"}
{"compound": "Cc1cc(=O)c2c(O)c(O)ccc2o1", "Potency": "inconclusive: 39.8 µM [inhibitor, partial curve]"}
{"compound": "CSCCC(NS(=O)(=O)c1ccc2c(c1)oc(=O)n2C)C(=O)Nc1ccc(Cl)cc1", "note": "(centres undefined)", "Potency": "inconclusive: 89.1 µM [inhibitor, single point]"}
{"compound": "COc1ccc(-c2csc(NC(=O)c3ccccc3NS(=O)(=O)c3ccc(C)cc3)n2)cc1", "Potency": "active: 35.5 µM"}
